# Results from paper PMC4336329 (PLoS ONE, 2015).
# Out of some 310,000 compounds screened, about 2,200 (0.71%) showed an effect of 50% or more. Effects have a minus sign here. This is one part of the list.
# Molecular target: human ether-à-go-go-related gene (hERG) potassium channel (human, UniProt Q12809)
# Experiment: primary screen, population patch clamp on CHO cells stably expressing hERG
# Chain of human ether-à-go-go-related gene (hERG) potassium channel (Q12809 whole entry, looked up): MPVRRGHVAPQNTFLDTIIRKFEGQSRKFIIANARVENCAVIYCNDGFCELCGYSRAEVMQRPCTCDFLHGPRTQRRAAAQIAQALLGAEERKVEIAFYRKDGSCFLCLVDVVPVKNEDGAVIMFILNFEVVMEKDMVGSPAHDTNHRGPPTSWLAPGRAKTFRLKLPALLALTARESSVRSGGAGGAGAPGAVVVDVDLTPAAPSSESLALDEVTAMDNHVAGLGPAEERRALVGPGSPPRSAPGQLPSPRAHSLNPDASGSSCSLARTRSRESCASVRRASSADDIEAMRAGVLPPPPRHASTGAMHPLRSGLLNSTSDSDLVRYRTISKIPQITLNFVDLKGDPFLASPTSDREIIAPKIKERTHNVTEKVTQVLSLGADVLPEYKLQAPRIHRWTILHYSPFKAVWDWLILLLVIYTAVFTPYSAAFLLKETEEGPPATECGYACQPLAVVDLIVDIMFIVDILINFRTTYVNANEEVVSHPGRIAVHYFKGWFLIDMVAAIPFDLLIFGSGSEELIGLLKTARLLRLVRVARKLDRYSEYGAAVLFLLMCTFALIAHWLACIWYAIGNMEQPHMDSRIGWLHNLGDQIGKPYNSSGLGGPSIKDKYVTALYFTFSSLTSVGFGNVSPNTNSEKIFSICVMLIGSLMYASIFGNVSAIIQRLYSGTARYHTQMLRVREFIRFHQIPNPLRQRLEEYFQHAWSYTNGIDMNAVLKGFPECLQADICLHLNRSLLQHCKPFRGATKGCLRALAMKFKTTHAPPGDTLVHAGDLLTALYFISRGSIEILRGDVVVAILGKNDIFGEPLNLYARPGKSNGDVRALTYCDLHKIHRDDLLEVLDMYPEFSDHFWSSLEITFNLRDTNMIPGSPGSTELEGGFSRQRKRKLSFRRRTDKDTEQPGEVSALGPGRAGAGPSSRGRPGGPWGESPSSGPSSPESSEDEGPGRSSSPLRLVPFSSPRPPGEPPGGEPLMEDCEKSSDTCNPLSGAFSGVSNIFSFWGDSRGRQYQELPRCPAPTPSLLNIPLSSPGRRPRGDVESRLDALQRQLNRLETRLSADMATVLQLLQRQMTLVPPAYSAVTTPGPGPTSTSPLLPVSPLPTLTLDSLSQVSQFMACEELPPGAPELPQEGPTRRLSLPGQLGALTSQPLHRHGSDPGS
row,Compound,"hERG current change (%, negative = inhibition) at 1uM"
1,O=C(CNCc1ccccc1Cl)NCc1ccco1.O=C(O)C(=O)O,11.1%
2,C=CCC(O)(CC=C)C(C)N.Cl (centres unmarked),28.3%
3,COc1ccccc1N1CCN(C(=O)C(=O)c2cn(CC(=O)N3CCOCC3)c3ccccc23)CC1,16.7%
4,CCn1cc(C(=O)N[C@H](C(=O)NCCO)C(C)C)c(=O)c2cc3c(cc21)OCO3,12.7%
5,Cc1ccc(CCNC(=O)C2CC(c3cc(C(F)(F)F)cc(C(F)(F)F)c3)=NO2)cc1 (centres unmarked),10.5%
6,Cc1cc(S(=O)(=O)NCc2cccs2)ccc1-n1cnnn1,10.7%
7,CC1=C/C(=C(\c2ccc(O)c(C)c2)c2ccccc2S(=O)(=O)O)C=CC1=O,16.3%
8,O=C(NNC(=O)C1C2C=CC(C2)C1C(=O)O)c1ccccc1O (centres unmarked),11.7%
9,COc1ccc(CCN2C(=O)CS/C2=N\NC(=O)c2ccc(C(C)(C)C)cc2)cc1OC,12.5%
10,Br.CC(=O)NNc1nc(-c2ccc(C)cc2)cs1,17.9%
11,O=C1/C(=C/c2ccccc2)Nc2ccccc21,8.28%
12,Cc1ccc(C(=O)Nc2nnc(C3=COCCO3)o2)cc1C,5.07%
13,CCOC(=O)c1c(C)[nH]c(C(=O)/C(C#N)=C/c2ccc(OC)c(OC)c2)c1C,14.6%
14,CC(/C=C1\SC(=S)N(C(C(=O)O)c2ccccc2)C1=O)=C\c1ccccc1 (centres unmarked),13.8%
15,Cc1cc(C(=O)CSc2nn3c(=O)c(C(C)(C)C)nnc3s2)c(C)n1C,3.46%
16,CCn1c(C)c(C)c2cc(C(=O)NCCCN3CCN(C)CC3)ccc21,16.8%
17,CCC1CCCCN1C(=O)c1c(-c2ccccc2)noc1C (centres unmarked),9.42%
18,CC(C)OC(=O)Nc1ccc2c(c1)N(C(=O)CCN1CCN(CCO)CC1)c1ccccc1CC2.Cl.O,9.57%
19,O=C1CCCC2=C1C(c1cccs1)Nc1ccccc1N2 (centres unmarked),7.81%
20,Cc1ccc(C)n1-c1ccc(C(=O)N/N=C/c2ccncc2)cc1,2.98%
21,Cc1cc(C)n(C(=O)/C(C#N)=N/Nc2cc(Cl)cc(Cl)c2)n1,9.89%
22,CCC(C)(C)NC(=O)C(c1cccs1)N(C(=O)c1ccn[nH]1)c1ccccc1 (centres unmarked),1.13%

row,Compound,"hERG current change (%, negative = inhibition) at 1uM"
1,Cc1ccc(C)c(OCc2cc(C(=O)N3CCNC(=O)C3)no2)c1,9.3%
2,Cc1ccsc1/C=N/N=C1\C(=O)Nc2ccccc21,13%
3,O=C(CCN1C(=O)c2ccc([N+](=O)[O-])cc2C1=O)Nc1nccs1,9.88%
4,CCOC(=O)N1CCC(N2CCCC(CO)(Cc3ccccc3C)C2)CC1 (centres unmarked),7.63%
5,COc1ccc(CC(=O)NNc2ncnc3c2cnn3-c2ccc(C)cc2)cc1,-0.6%
6,O=C(Nc1ccc2[nH]c(=O)[nH]c2c1)Nc1ccc(F)cc1F,7.17%
7,CC(C)Cn1c(SCC(=O)N(C)c2c(N)n(Cc3ccccc3)c(=O)[nH]c2=O)nc2ccccc21,21%
8,O=C(O)Cc1ccc(-n2cccc2)cc1,16.5%
9,COc1ccc(CCNC(=O)c2ccc(-c3ccc([N+](=O)[O-])cc3Cl)o2)cc1OC,6.57%
10,COC(=O)C1Cc2c([nH]c3ccccc23)C2(CCN(Cc3ccccc3)CC2)N1 (centres unmarked),-8.91%
11,COc1ccc(S(=O)(=O)N2CCCCCC2)cc1NC(=O)CN1C(=O)NC(C)(c2ccc(C)cc2)C1=O (centres unmarked),-0.44%
12,COc1cccc(CNC(=S)Nc2cccc(Cl)c2C)c1,15.7%
13,COc1ccc(S(=O)(=O)N2CCN(CCc3ccccc3)CC2)cc1,9.86%
14,Cc1ccc(-c2c[n+](Cc3ccc(Cl)c(Cl)c3)c3n2CCC3)cc1.[Cl-],-16.3%
15,O=C(NCc1ccco1)C(c1ccncc1)N(C(=O)Cn1nnc2ccccc21)c1ccccc1F (centres unmarked),6.94%
16,O=C1CCCN1CCCNc1ncnc2c1[nH]c1ccccc12,16.6%
17,Cc1ccc(C2=NN(CCC(=O)NCc3ccc4c(c3)OCO4)C(=O)CC2)cc1,-12.1%
18,O=C(Nc1ccc2c(c1)CCCN2C(=O)c1ccccc1)c1ccccc1,8.23%
19,Cc1cc(C)n(-c2nc3ccccc3nc2N2CCN(S(=O)(=O)c3ccc(F)c(C)c3)CC2)n1,15.6%
20,CON(C)c1nc(OCCNC(=O)COc2ccc(Cl)cc2C)nc(N(C)C)n1,6.99%
21,COc1cc(CC(=O)Nc2ccc(S(=O)(=O)N(C)C)cc2)cc(OC)c1OC,-1.83%
22,COc1ccc(CCC(=O)Nc2nccs2)cc1OC,8.81%

row,Compound,"hERG current change (%, negative = inhibition) at 1uM"
1,CCOc1ncccc1C(=O)OCC(=O)Nc1ccc(C)c(S(=O)(=O)N2CCOCC2)c1,5.86%
2,COc1ccc(C(C)=O)cc1CSc1nnc(Nc2ccc(C)cc2C)s1,16%
3,COCCn1c(C)cc(C(=O)COC(=O)CNC(=O)c2ccco2)c1C,12.1%
4,Cc1ccc2cc(CN(C)S(C)(=O)=O)c(=O)[nH]c2c1,13.1%
5,Cc1ccc(NC(=O)CC2=NC(=O)C(CC(=O)Nc3ccccc3F)S2)cc1 (centres unmarked),14.5%
6,CC(c1ccc(O)cc1)(c1ccc(O)cc1)c1ccc(CCBr)cc1,12.3%
7,CN(C)/C=N/c1c(C#N)cnn1-c1ncnc2sc(-c3ccccc3)cc12,0.979%
8,Cc1nn(Cc2ccccc2Cl)c(Cl)c1C(=O)OCC(=O)NCc1ccco1,9.54%
9,Cc1ccnc(NC(=O)c2ccc(S(=O)(=O)N3CCCC3)cc2)c1,1.03%
10,Nn1c(SCc2ccc(F)cc2)nnc1-c1cccnc1,-2.05%
11,Cc1cc(C(=O)N2CCN(S(=O)(=O)c3ccc(F)c(Cl)c3)CC2)c(C)o1,-2.29%
12,COc1ccc(CCNC(=O)COC(=O)c2ccc(C)s2)cc1OC,11.6%
13,Cc1cc(C(=O)NCC(=O)OCC(=O)N(C)C2CCCCC2)ccc1[N+](=O)[O-],1.42%
14,CC(=O)OC(C(=O)Nc1ccccc1)C(C)S(=O)(=O)c1ccccc1 (centres unmarked),-1.13%
15,CCCNc1ccc(C(=O)OCC)cc1[N+](=O)[O-],7.84%
16,O=C(/C=C/c1ccc(Cl)cc1)N(c1ccccn1)C1CCCCC1,6.06%
17,CC(C)Oc1ccc(C(=O)Nc2ccc(C(F)(F)F)n(C)c2=O)cc1,-3.82%
18,Cc1ccccc1-n1sc2cc(F)ccc2c1=O,16%
19,CC(=O)Nc1ccc(/C=C/c2nc3ccccc3o2)cc1,15%
20,O=S(=O)(Cc1ccccc1)N1CCN(C/C=C/c2ccccc2)CC1,-2.58%
21,O=C(Nc1ccc(F)c(F)c1)C1CCCCC1,13.1%
22,CCOc1ccc2nc(SCC(=O)NCc3ccccc3)[nH]c2c1,14.5%

row,Compound,"hERG current change (%, negative = inhibition) at 1uM"
1,COC(=O)c1cccc(NC(=O)c2ccc(OC)c(Cl)c2)c1,-49.4%
2,Cc1ccccc1N(CC(=O)NCCc1ccccc1)C(=O)c1csnn1,6.93%
3,CCCN(CC(=O)Nc1ccccc1OC)C(=O)c1ccc2c(c1)NC(=O)C(C)S2 (centres unmarked),6.95%
4,COC(=O)C1CN(C(=O)C(C)Oc2ccc(C(C)C)cc2)c2ccccc2O1 (centres unmarked),13.3%
5,CSc1nc2ccc(NS(=O)(=O)c3ccc4c(c3)OCCO4)cc2s1,3.7%
6,Cn1c(N)c(C(=O)COC(=O)C2CC(=O)N(Cc3ccccc3)C2)c(=O)n(C)c1=O (centres unmarked),8.36%
7,CSCCC(NS(=O)(=O)c1ccc2c(c1)OCCO2)C(=O)N(C)Cc1ccccc1F (centres unmarked),5.61%
8,COc1cccc(-c2cc(C(F)(F)F)nc(N3CCN(c4ccccc4)CC3)n2)c1,6.13%
9,CC(C)CC(NC(=O)c1ccc(Cl)cc1)C(=O)OCc1cc([N+](=O)[O-])cc2c1OCOC2 (centres unmarked),16.1%
10,Cc1nnc(NC(=O)CSc2nc(N)c(NC(=O)c3cccs3)c(=O)[nH]2)s1,12.9%
11,CC1(C)CC2(CCO1)CNC(=O)O2 (centres unmarked),5.88%
12,COc1ccc(/C=N\NC(=O)c2cc3c(ccc4ccccc43)o2)cc1O,12.7%
13,COc1ccc(/C=N/Nc2nc(-c3ccc(C)cc3)c(NC(C)=O)s2)cc1OC,3.93%
14,CS/C(N)=N/N=C/c1cc(Br)cc(Br)c1O,12.1%
15,Cc1ccc(S(=O)(=O)Oc2ccc(N3C(=O)C4C5CCC(C5)C4C3=O)cc2)cc1 (centres unmarked),11%
16,CCOc1ccc2ccccc2c1C1NC(=S)N(C)C(C)=C1C(=O)OC (centres unmarked),6.89%
17,COc1c(C=O)c(CCN(C)C(=O)c2ccc(F)cc2)cc2c1OCO2,9.69%
18,c1csc(-c2nc(NCCCN3CCOCC3)c3ccccc3n2)c1,-8.13%
19,CCc1ccccc1NC(=O)c1cc(S(=O)(=O)N(C)C)ccc1N1CCCC1,1.37%
20,O=C(CSc1ccc([N+](=O)[O-])cc1)NNC(=O)c1ccccc1F,-9.82%
